These results are taken from publication PMC4174998 (Journal of Medicinal Chemistry, 2014).

Data set [1] concerns serum RBP4. The conditions noted are these: Abca4–/– mouse, chronic administration; cited from earlier work.
A further data set deals with visual cycle retinoids. The conditions noted are these: Abca4–/– mouse, chronic administration; cited from earlier work.
For another data set, the system named is lipofuscin bisretinoids. Conditions: cited from earlier work.
Another data set has as its target human RBP4 (Homo sapiens, UniProt P02753). Format: binding.
Data set [2] is described as follows: Liver microsomal stability across multiple species. The data set is classed as in vitro ADME. (In general: Liver microsomes are vesicles of endoplasmic reticulum, rich in cytochrome P450 enzymes.)
The conditions of data set [3]: rat, urine 0–48 h after iv administration.
A further data set in a line: in vivo. Conditions: male, Sprague Dawley, rat, plasma, po, 5 mg/kg.
Another data set deals with plasma RBP4 (Rattus norvegicus, UniProt P04916). In words: Plasma RBP4 lowering in rats. Format: in vivo.
The target of the next data set is hERG channel (Homo sapiens, UniProt Q12809). The data set is described as follows: Off-target activity at hERG. (In general: The hERG channel carries a current that helps repolarise heart muscle cells.)
Sequence of UniProt Q12809 (Q12809 whole entry): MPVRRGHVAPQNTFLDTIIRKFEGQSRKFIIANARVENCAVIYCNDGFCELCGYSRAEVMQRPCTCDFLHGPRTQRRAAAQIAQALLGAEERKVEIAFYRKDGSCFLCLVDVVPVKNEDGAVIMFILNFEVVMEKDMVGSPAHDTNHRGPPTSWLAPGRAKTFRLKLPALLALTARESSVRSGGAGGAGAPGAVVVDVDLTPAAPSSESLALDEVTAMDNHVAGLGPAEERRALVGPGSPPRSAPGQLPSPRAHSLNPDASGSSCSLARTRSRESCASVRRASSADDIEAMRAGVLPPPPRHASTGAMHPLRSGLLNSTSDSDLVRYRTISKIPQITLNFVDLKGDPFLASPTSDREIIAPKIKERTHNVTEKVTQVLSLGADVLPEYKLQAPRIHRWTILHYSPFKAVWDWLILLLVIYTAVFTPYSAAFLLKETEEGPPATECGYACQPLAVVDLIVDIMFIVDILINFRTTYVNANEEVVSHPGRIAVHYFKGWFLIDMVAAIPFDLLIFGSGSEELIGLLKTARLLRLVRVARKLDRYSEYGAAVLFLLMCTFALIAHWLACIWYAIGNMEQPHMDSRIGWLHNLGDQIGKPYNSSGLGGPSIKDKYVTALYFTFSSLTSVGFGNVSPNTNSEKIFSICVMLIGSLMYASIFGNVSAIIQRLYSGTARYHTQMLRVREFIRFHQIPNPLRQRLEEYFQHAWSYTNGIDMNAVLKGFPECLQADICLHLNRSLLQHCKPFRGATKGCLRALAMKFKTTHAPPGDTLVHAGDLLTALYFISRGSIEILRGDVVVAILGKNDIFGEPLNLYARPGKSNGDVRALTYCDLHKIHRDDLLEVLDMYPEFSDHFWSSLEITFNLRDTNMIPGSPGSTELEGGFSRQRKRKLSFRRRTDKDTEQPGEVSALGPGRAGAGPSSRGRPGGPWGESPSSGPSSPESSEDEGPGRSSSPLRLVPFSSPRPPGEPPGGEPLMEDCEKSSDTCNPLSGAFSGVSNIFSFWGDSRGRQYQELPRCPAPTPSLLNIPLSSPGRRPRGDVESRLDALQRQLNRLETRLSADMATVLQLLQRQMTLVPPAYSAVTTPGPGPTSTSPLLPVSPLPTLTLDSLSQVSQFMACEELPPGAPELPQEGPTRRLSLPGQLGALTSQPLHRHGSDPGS
Data set [4] addresses retinol-dependent RBP4-TTR interaction (Homo sapiens, UniProt P02753). In words: HTRF assay for antagonists of retinol-induced RBP4-TTR interaction. Format: biochemical. Conditions: (S)-isomer versus its (R)-congener. For orientation: TR-FRET usually uses a lanthanide donor and a delayed reading to cut background.
The test system of data set [5] is serum RBP4. Conditions: extended clinical studies; cited from earlier work.

Each structure is given as a SMILES string.

For `O=C(O)c1ccccc1NC(=O)N1CCC(c2ccccc2C(F)(F)F)CC1` [Compound 3, 2-(4-(2-(trifluoromethyl)phenyl)piperidine-1-carboxamido)benzoic acid], in the data set with serum RBP4 [1], the “reduction in serum RBP4” value is recorded as 75%. Moreover, in the data set with visual cycle retinoids, the “reduction in certain visual cycle retinoids” value is 30–50%. Also, the “reduction of accumulation of lipofuscin bisretinoids” value with lipofuscin bisretinoids (Abca4–/– mouse, chronic administration) is on record as “approximately 50%”.

Regarding `CN(CCOc1ccccc1C(F)(F)F)C(=O)Nc1ccccc1C(=O)O` [Compound 20, 2-(3-Methyl-3-(2-(2-(trifluoromethyl)phenoxy)ethyl)ureido)benzoic Acid], the “less potent than A1120” value on human RBP4 is reported as about 100 fold.

On to `CN(CCOc1ccccc1C(C)(C)C)C(=O)Nc1ccccc1C(=O)O` [Compound 25, 2-(3-(2-(2-(tert-Butyl)phenoxy)ethyl)-3-methylureido)benzoic Acid], for which the “liver microsomal stability across multiple species” value in data set [2] was “poor liver microsomal stability across multiple species”.

By AUC(0-inf) is commonly meant the area under the concentration-time curve extrapolated to infinity. What is called AUC(0-t) is the area under the concentration-time curve up to a stated or last time point. A high value points to high exposure. As a reminder, the Cmax is the peak of the concentration-time curve. Usually Tmax stands for the time from dosing to the highest level. Broadly, the bioavailability is dose-corrected exposure relative to a reference, in per cent. Higher therefore signals much systemic uptake. What is called half-life is the time in which the quantity being followed falls by half. Low values mean rapid decline, high ones slow decline. In the case of `O=C(O)c1ccccc1NC(=O)N1C[C@H]2C[C@@H](c3ccccc3C(F)(F)F)C[C@H]2C1` [Compound 43, 2-((3aR,5r,6aS)-5-(2-(Trifluoromethyl)phenyl)octahydrocyclopenta[c]pyrrole-2-carboxamido)benzoic Acid], the “unchanged compound in urine” value in data set [3] is listed as “No unchanged 43 was quantifiable”. Also, in the data set “in vivo”, the AUC(0-inf) came to 43900 ng·h/mL, the AUC(0-t) was 43600 ng·h/mL, the highest level (Cmax) was 3950 ng/mL and the time to peak (Tmax) is 2.9 h. In “in vivo”, this compound had a bioavailability of 31% and a half-life of 6.2 h. Also, at plasma RBP4 (7-day oral administration at 5 mg/kg), the “reduction in plasma RBP4” value is reported as “approximately 60%”. The “decrease in plasma RBP4” value on plasma RBP4 (single 5 mg/kg oral dose) was 30–50%. The “off-target activity at the hERG channel” value at hERG channel is “no significant off-target activity”.

Turning to `O=C(O)c1cccnc1NC(=O)N1C[C@H]2C[C@@H](c3ccccc3C(F)(F)F)C[C@H]2C1` [Compound 54, 2-((3aR,5R,6aS)-5-(2-(Trifluoromethyl)phenyl)octahydrocyclopenta[c]pyrrole-2-carboxamido)nicotinic Acid], the “RBP4 activity” value on human RBP4 is listed as “essentially devoid of activity”.

Turning to `C[C@H](NC(=O)N1C[C@H]2C[C@@H](c3ccccc3C(F)(F)F)C[C@H]2C1)C(=O)O` [Compound (S)-59, (S)-2-((3aR,5S,6aS)-5-(2-(Trifluoromethyl)phenyl)octahydrocyclopenta[c]pyrrole-2-carboxamido)propanoic Acid], the “eudismic ratio, HTRF assay” value in [4] is reported as about 1.7.

On to `O=C(O)[C@@H](NC(=O)N1C[C@H]2C[C@@H](c3ccccc3C(F)(F)F)C[C@H]2C1)c1ccccc1` [Compound (S)-61, (S)-2-Phenyl-2-((3aR,5S,6aS)-5-(2-(Trifluoromethyl)phenyl)octahydrocyclopenta[c]pyrrole-2-carboxamido)acetic Acid], for which, in data set [4], the “eudismic ratio, HTRF assay” value is about 10. Also, on human RBP4 ((S)-isomer versus its (R)-congener), the “eudismic ratio, SPA assay” value is about 10.

As to `CC1=C(/C=C/C(C)=C/C=C/C(C)=C/C(=O)Nc2ccc(O)cc2)C(C)(C)CCC1` [fenretinide], the “serum RBP4 in AMD patients” value with serum RBP4 [5] is “reduce serum RBP4”. The “accumulation of lipofuscin bisretinoids” value in the data set on lipofuscin bisretinoids (Abca4–/– mouse model, ref 13a) was “significantly reduced accumulation of lipofuscin bisretinoids”.
